# From PubChem BioAssay AID485281 (National Center for Advancing Translational Sciences (NCATS), 2010)
# In all, about 350,000 compounds went through this assay and about 260 (0.074%) were called active. This list was built around the results that the source calls inconclusive (neither active nor inactive); the mix of calls is not that of the screen. Calls come from the whole dose curve; as a rule, active = well fitted inhibition curve with a large enough effect; inconclusive = small, poorly fitted or top-dose-only effect; inactive = no such curve, though single readings can be large or run the other way. Where the call is inconclusive, the potency comes from a doubtful curve fit.
# Biological target: Ferritin light chain (Equus caballus) (UniProt P02791)
# Chain of UniProt P02791 (P02791 whole entry, looked up): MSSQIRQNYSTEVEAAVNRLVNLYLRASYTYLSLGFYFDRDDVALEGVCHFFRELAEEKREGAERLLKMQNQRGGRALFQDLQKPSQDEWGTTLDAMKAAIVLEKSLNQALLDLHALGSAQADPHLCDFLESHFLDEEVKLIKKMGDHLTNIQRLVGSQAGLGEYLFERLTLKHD
# Assay: qHTS Assay for Identification of Novel General Anesthetics; note: nearly all actives have a fitted effect of over 20% in size
# Settings: apoferritin/1-aminoanthracene competitive binding, fluorescence; series mostly up to 77.5 µM
# Procedure, shortened: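 Steps: apoferritin (10 uM) was premixed with half-saturated 1-AMA in PBS, compounds were pin-transferred, plates stood 10 min at room temperature, fluorescence was read at 380/535 nm, and curves were fitted with a Hill equation.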
# Potency is the fitted concentration of half-maximal effect; tags give direction and shape of the fitted curve.
row,SMILES,Potency
1,O/N=C1/CC/C(=N\O)c2nn(-c3ccccc3)nc21,inactive
2,Cc1nn(CCC#N)c2nc(-c3ccccc3)cc(C(F)(F)F)c12,"inconclusive: 7.94 µM [inhibitor, partial curve]"
3,C[C@@H](C(=O)NC1CCCCC1)N1C(=O)N2CCc3c([nH]c4ccccc34)[C@@]2(C)C1=O,"inconclusive: 17.8 µM [inhibitor, partial curve]"
4,CN(C)CCN(C(=O)/C=C/c1cccs1)c1nc2ccc(Br)cc2s1,inactive
5,CC1=Nc2cc(C(=O)NC3CCCCC3)ccc2Sc2ccc(Cl)cc21,inactive
6,CCOC(=O)c1ccc2c(c1)C1C=CCC1C(C(=O)OCC)N2 (stereo not given),"inconclusive: 50.1 µM [inhibitor, single point]"
7,O=C(CCN1C(=O)c2ccccc2C1=O)N1CCOCC1,inactive
8,CC(C)OCCCNC(=O)COCC(=O)Nc1ccc(OCCc2ccccc2)cc1,"inconclusive: 14.1 µM [inhibitor, partial curve]"
9,COc1cc(NC(=O)c2cc3sccc3n2C)cc(OC)c1,"inconclusive: 12.6 µM [inhibitor, partial curve]"
10,COc1ccc2nc(NC(=O)CN3C(=O)NC4(CCCCC4)C3=O)sc2c1,inactive
11,CC(C)[C@H](NC(=O)c1ccccc1)C(=O)OCC(=O)c1ccc2c(c1)NC(=O)CO2,"inconclusive: 35.5 µM [inhibitor, partial curve]"
12,COc1ccccc1NC(=O)CSC1=Nc2ccccc2C2=NC(CC(=O)NCCc3ccccc3)C(=O)N12 (stereo not given),"inconclusive: 50.1 µM [inhibitor, single point]"
13,CCOc1ccc(Nc2c(S(=O)(=O)c3ccc(C)cc3)cnc3cc(OC)c(OC)cc23)cc1,"inconclusive: 10 µM [inhibitor, full curve, poor fit]"
14,CC(Sc1nnc(-c2ccccc2)c(-c2ccccc2)n1)C(=O)N1CCc2ccccc21 (stereo not given),"inconclusive: 17.8 µM [inhibitor, partial curve]"
15,C=CCn1c(COc2ccc(Cl)cc2)nnc1SCC(=O)N/N=C/c1ccccc1,"inconclusive: 50.1 µM [inhibitor, single point]"
16,O=C(O)c1ccc(CCN2CCN(CC=Cc3ccc(Cl)cc3)CC2)cc1,inactive
17,O=C(CC1SC(=O)N(c2ccccc2)C1=O)Nc1ccc(Br)cc1 (stereo not given),inactive
18,COCCCN1C(=O)C(=O)/C(=C(/O)c2ccc(S(=O)(=O)N3CCCCC3)cc2)C1c1cccc(OC)c1 (stereo not given),inactive
19,COc1cccc(NC(=O)C2CCN(S(=O)(=O)c3ccc4c(c3)CC(C)N4C(C)=O)CC2)c1 (stereo not given),inactive
20,Cc1ccc(C)c(-c2csc(N)c2C(=O)OC(C)C)c1,inactive
21,CCOC(=O)c1ccc(NC(=O)c2c(NC(=O)CCC(=O)O)sc3c2CCCCC3)cc1,"inconclusive: 20 µM [inhibitor, partial curve]"
22,CC(C)c1cc(C(=O)NCCc2ccccc2)no1,"inconclusive: 22.4 µM [inhibitor, partial curve]"
23,CCCC[C@H](NC(=O)[C@H](CC(C)C)NC(=O)CNC(=O)[C@@H](NC(=O)[C@H](Cc1ccccc1)NC(=O)[C@H](CO)NC(=O)[C@@H](N)CC(=O)O)C(C)C)C(N)=O,inactive
24,c1ccc(OCc2noc(CN3CC[C@@H]4CCCC[C@H]4C3)n2)cc1,"inconclusive: 35.5 µM [inhibitor, partial curve]"

row,SMILES,Potency
1,Cc1ccc(-c2cccc(NC(=O)C3C(C(=O)O)[C@@H]4C=C[C@H]3C4)c2)o1 (stereo not given in full),"inconclusive: 35.5 µM [inhibitor, partial curve]"
2,O=C(NC(=S)Nc1ccccc1N1CCCCC1)c1ccc(F)cc1,"inconclusive: 11.2 µM [inhibitor, partial curve]"
3,CC(=O)c1cccc(NC(=O)Cn2c(=O)c(CNc3ccc(C)cc3)cc3cc4c(cc32)OCCO4)c1,inactive
4,CC1CCCCN1S(=O)(=O)c1ccc(S(=O)(=O)N2CCN(c3ccc(F)cc3)CC2)cc1 (stereo not given),"inconclusive: 0.794 µM [inhibitor, full curve, poor fit]"
5,Nc1c(C(=O)NCc2ccco2)nnn1CC(=O)Nc1ccc2c(c1)OCO2,"inconclusive: 14.1 µM [inhibitor, partial curve]"
6,O=C(CCc1ccccc1)NC(=S)NCc1ccco1,"inconclusive: 22.4 µM [inhibitor, partial curve]"
7,CCC(C)(C)NC(=O)C(c1ccc(OC)cc1)N(C(=O)CCC(=O)Nc1cc(C)on1)c1ccccc1F (stereo not given),"inconclusive: 35.5 µM [inhibitor, partial curve]"
8,O=C1Nc2ccccc2C12Nc1ccccc1-c1nc3ccccc3n12 (stereo not given),"inconclusive: 28.2 µM [inhibitor, partial curve]"
9,COc1cc2c(C(=O)N3CCN(C)CC3)c(C)oc2cc1Br,inactive
10,CCCCCOCC(O)CCC(=O)NN (stereo not given),"inconclusive: 28.2 µM [inhibitor, partial curve]"
11,CCc1ccc(N2C(=O)/C(=C/c3cccs3)N(CC(=O)OC)C2=S)cc1,"inconclusive: 31.6 µM [inhibitor, partial curve]"
12,Cc1c(C(=O)N(C)Cc2ccccc2)oc2ccc(S(=O)(=O)N3CCCC3)cc12,inactive
13,c1ccc(NCc2ccncc2)cc1,"inconclusive: 31.6 µM [inhibitor, single point]"
14,COc1cccc(CCN2CCC(CNS(=O)(=O)c3cc(-c4cc(C)no4)ccc3C)CC2)c1,"inconclusive: 20 µM [inhibitor, partial curve]"
15,O=C(CN1C(=O)CSc2ccccc21)Nc1ccc2c(c1)OCCO2,"inconclusive: 22.4 µM [inhibitor, partial curve]"
16,C=CCOc1ccc2ccccc2c1/C=N/O,"inconclusive: 35.5 µM [inhibitor, partial curve]"
17,CCOC(=O)c1c(-c2ccsc2)csc1N,"inconclusive: 50.1 µM [inhibitor, single point]"
18,O=C(CSc1ccccc1)N1CCc2ccccc21,"inconclusive: 3.55 µM [inhibitor, full curve]"
19,O=C(c1ccc(F)cc1)C(CN1CCOCC1)c1ccccc1 (stereo not given),"inconclusive: 25.1 µM [inhibitor, partial curve]"
20,C=CC[n+]1c(-c2ccc(C)cc2)csc1NNC(=O)Nc1ccccc1,"inconclusive: 20 µM [inhibitor, partial curve]"
21,Cc1ccc(NC(=O)C(=O)NCc2ccc(/C=N/NC(=O)c3c(C)nc4ccccn34)o2)cc1,"inconclusive: 35.5 µM [inhibitor, single point]"
22,Nc1cc(=O)n(Cc2ccccc2)c(=O)n1-c1ccc(Cl)cc1,inactive
23,CC1CCCN(c2ccc(C(=O)NCc3ccco3)cc2[N+](=O)[O-])C1 (stereo not given),"inconclusive: 50.1 µM [inhibitor, single point]"
24,CNc1ccccc1-c1nc2ccccc2n(C)c1=O,"inconclusive: 28.2 µM [inhibitor, partial curve]"

row,SMILES,Potency
1,Cc1ccc(S(=O)(=O)N(CC(O)CN2CCCC2)c2ccccc2)cc1 (stereo not given),"inconclusive: 50.1 µM [inhibitor, single point]"
2,O=S(=O)(Nc1cccc(-c2cn3c(n2)SCC3)c1)c1ccccc1F,"inconclusive: 25.1 µM [inhibitor, partial curve]"
3,COc1cccc(C2=Nn3c(nnc3-c3ccccc3C)SC2)c1,"inconclusive: 20 µM [inhibitor, partial curve]"
4,O=C(Nn1c(Cc2cccs2)nc2ccccc2c1=O)c1cccs1,"inconclusive: 39.8 µM [inhibitor, partial curve]"
5,Cn1c(-c2cccc(OCc3ccccc3)c2)nc2c1c(=O)[nH]c(=O)n2Cc1ccccc1,inactive
6,CCOc1ccc(-c2noc(-c3ccncc3)n2)cc1OCC,inactive
7,CCNC(=O)Nc1nc2ccccc2s1,inactive
8,O=C1ON=C(c2ccccc2)/C1=C/c1cccnc1,inactive
9,Cc1ccc(NC(=O)CSc2nnc(Cc3cccn3C)n2-c2ccc(F)cc2)c(C)c1,"inconclusive: 39.8 µM [inhibitor, single point]"
10,O=c1n(CCCN2CCN(c3cccc(Cl)c3)CC2)nc2ccccn12,inactive
11,CC1(C)CC(=O)C2=C(C1)NC(SCC(=O)Nc1ccccc1)=C(C#N)C21CCCCC1,inactive
12,CCc1ccc(NS(=O)(=O)c2cccs2)cc1,"inconclusive: 39.8 µM [inhibitor, single point]"
13,c1ccc2c(COn3nnc4ccccc43)cccc2c1,"inconclusive: 28.2 µM [inhibitor, partial curve]"
14,Cc1nonc1CN(C)C(=O)c1cc(COc2ccc(F)cc2Cl)on1,"inconclusive: 20 µM [inhibitor, partial curve]"
15,CCC(Cc1ccccc1)NC(=O)c1oc(=O)c2ccccc2c1-c1ccccc1 (stereo not given),"inconclusive: 17.8 µM [inhibitor, partial curve]"
16,Cc1cc(NC(=O)Nc2ccc(Cl)c(Cl)c2)n(-c2ccccc2)n1,"inconclusive: 28.2 µM [inhibitor, partial curve]"
17,COc1cc(-c2cc(C(=O)Nc3cccc(C(C)=O)c3)c3ccccc3n2)cc(OC)c1OC,inactive
18,COc1cccc(NS(=O)(=O)Cc2ccccc2)c1,"inconclusive: 31.6 µM [inhibitor, partial curve]"
19,CCOc1ccccc1C1C(C#N)=C(SCC(=O)OC)NC(=O)C1C(=O)OC (stereo not given),inactive
20,CCc1ccc(NC(=O)N2CCN(Cc3cc(=O)n4nc(-c5ccccc5OC)sc4n3)CC2)cc1,inactive
21,Cc1ccc(CN2CCNC(=O)C2CC(=O)NC2CCCCCC2)cc1 (stereo not given),"inconclusive: 28.2 µM [inhibitor, partial curve]"
22,COc1ccc(/C=C/c2nc(N)nc(-c3ccccc3O)n2)cc1OC,"inconclusive: 50.1 µM [inhibitor, single point]"
